Sequences with one replicate were seen in a single cluster, so their values are uncertain.

Data on 121 sequences can be found in the supplement of paper PMC10126150.

The data set relates to ATP. Description: switch fluorescence ratio, 500 uM ATP over buffer (Cy3 cluster intensity, sum of 5 cycles each) (fold (ratio)); higher = stronger signal-on switching upon ATP binding; sequences stand for … in TCGTCGGCAGCGTCAGATGTGTATAAGAGACAGTTTTTTTTTTTTTTTTTTTTTTTTT…TC. Conditions: aptamer strand: ATP DNA aptamer (quencher-CACCTGGGGGAGTATTGCGGAGGAAGG + anchor), 100 nM annealed; ATP concentration: 500 uM; one replicate. In outline:
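Values give the fluorescence ratio for each switch-domain sequence, averaged from per-cluster ratios of summed target-cycle to summed buffer-cycle Cy3 intensity. The Cy3-labelled switching-strand clusters sat on a modified Illumina MiSeq flow-cell, were annealed to 100 nM quencher-labelled ATP aptamer, and were imaged in selection buffer, then after 15 min with 500 uM ATP at 22 °C. Five cycles ran with NaOH stripping and re-annealing between them, and clusters outside 100-1000 RFU were excluded.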
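Further: ATP exposure 15 min at 22 °C before imaging.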

As to GAAACTTAAG, the switch fluorescence ratio turned out to be 0.992.

In the case of ACGTATTTG, the switch fluorescence ratio came out at 1.1. For CAAAAGATGG, the switch fluorescence ratio is 0.987.

Turning to AAAGCAGAG, the switch fluorescence ratio is 1.03. On to AACATGGTAC, for which the switch fluorescence ratio was 1.03. AGTTTAGTGG: the switch fluorescence ratio turned out to be 0.996. Consider GGATGATGGC, for which the switch fluorescence ratio came to 0.893. In the case of CCGTCAGAAC, the switch fluorescence ratio was 3.28. Consider GAATTTGCTA, for which the switch fluorescence ratio came to 0.979.

For the sequence TTTTGTCGGC, the switch fluorescence ratio is 1. CGTGAATTT: the switch fluorescence ratio worked out at 0.981.

In the case of TTTCACACCG, the switch fluorescence ratio was found to be 1.05. The figure for CTGAACGTCG is 1.09. For the sequence CGAAGTCGGT, the switch fluorescence ratio turned out to be 1.02. Consider TAAGTAAACG, for which the switch fluorescence ratio was found to be 0.919. With CATCTGGCGA, the switch fluorescence ratio was 1.88. For GGCCGCGCCG, the switch fluorescence ratio was determined as 0.998. For the sequence TGTAAATAAA, the switch fluorescence ratio was determined as 0.994. The figure for AGTGTGGTCC is 0.978; for TCGAATAGTA it is 0.989; for GCCGTAACTT it is 1.01. ACAAAGAGT: the switch fluorescence ratio came to 1.

AGTTGCTAA: the switch fluorescence ratio came out at 0.982. As for CGCTAGATAA, the switch fluorescence ratio came out at 1.09. On to CACTTTTTCT, for which the switch fluorescence ratio turned out to be 1.02.

Consider TACTTACATG, for which the switch fluorescence ratio amounted to 1.28. In the case of AGAGCACCAG, the switch fluorescence ratio stood at 1.05. As to CAGAACGAGG, the switch fluorescence ratio was 1.03. To GCCTAAGTT belongs 0.994; to ACGGCGAAAG, 1.02; to AGATTGCTTT, 1. The figure for GGGTCATGG is 1.03. To CTTGGCACAA belongs 1.04; to TAGACCCAC, 1.32; to TACTCCGAC, 1.91.

As for TCCCGATCGC, the switch fluorescence ratio amounted to 2.15. With GATCCACTAG, the switch fluorescence ratio is 0.991. Regarding CATTGTTCGG, the switch fluorescence ratio was 0.999. Regarding GTGCTGGG, the switch fluorescence ratio worked out at 1. As to CATACAGCCC, the switch fluorescence ratio was determined as 1.08. GGCGCGTGCC: the switch fluorescence ratio stood at 0.97.

For the sequence CCAGTATGGG, the switch fluorescence ratio was 0.996. Consider GGTACTGA, for which the switch fluorescence ratio is 1.01. Regarding GAATGTTTGT, the switch fluorescence ratio was determined as 0.981.

For the sequence TTATATTTCC, the switch fluorescence ratio came out at 1.04. For TGGTCACGG, the switch fluorescence ratio was 1.01.

Take AATCAATAGG: the switch fluorescence ratio was 1.03. The figure for TAATGCAGTC is 0.959; for TAGTATTTGA it is 1; for CAGTAGGTGA it is 1.07. Consider TGCGTCGCAG, for which the switch fluorescence ratio was 1.02. The figure for CCATCTTCAC is 1.05.

AAACTCGAGT: the switch fluorescence ratio came to 1.02. The figure for GGGCTGACAT is 1; for GTTTGGGTT it is 1.01. For CATTAGGAGT, the switch fluorescence ratio was found to be 0.985. To GGGGTCAATC belongs 0.977; to TCCGTGTCTT, 0.969. For GATGCGAAAG, the switch fluorescence ratio was 0.967. On to TACGGTACCT, for which the switch fluorescence ratio came out at 1.54. TTGATAGGGC: the switch fluorescence ratio was determined as 1.01. Turning to TGGTACTTC, the switch fluorescence ratio was 0.974. In the case of CAGACCGACT, the switch fluorescence ratio turned out to be 1.04. To ACTGGGCATT belongs 1.19; to GCAATCATGT, 1.04; to CGTTAACCGC, 1.07.

Turning to GTGCTTTTAT, the switch fluorescence ratio is 0.996.

Turning to TCCTTTTGTA, the switch fluorescence ratio was 0.976. As for TGCTACGTCT, the switch fluorescence ratio was 0.981. TCCATCTTTG: the switch fluorescence ratio worked out at 0.983.

Consider GCTAGTGATC, for which the switch fluorescence ratio was determined as 1.03. With ATGGTCGATT, the switch fluorescence ratio came out at 0.972. For TCATCGAACA, the switch fluorescence ratio was determined as 1.02. Turning to GATCACCCGT, the switch fluorescence ratio was found to be 1.03. To AGCCTGCCGC belongs 1.09; to AACGGAAACG, 1.03.

As for GTGCAAGAGT, the switch fluorescence ratio was determined as 1.07. To TATGTACACG belongs 1.08; to CGCTTCAC, 2.22. Turning to GGGAGGACCC, the switch fluorescence ratio came out at 1.05.

On to ATCCTCTGTT, for which the switch fluorescence ratio was 1.04. With CCCAATTTGT, the switch fluorescence ratio came out at 0.998. With CCCTTTCACC, the switch fluorescence ratio was found to be 1.1.

With TCGGTCCAAA, the switch fluorescence ratio came to 0.983.

In the case of AAGTGGGAT, the switch fluorescence ratio worked out at 1.02.

As for GGCATGGTCG, the switch fluorescence ratio was determined as 1.01. With ACGTTTTCTG, the switch fluorescence ratio came out at 0.994.

As to ACCAGCCCCT, the switch fluorescence ratio worked out at 1.02. Regarding GTAATTCGTA, the switch fluorescence ratio turned out to be 0.981. To GCATTATA belongs 0.984; to AGATTGGCTC, 0.997. AATAGTTTC: the switch fluorescence ratio turned out to be 1.03.

As to TCGAATGAG, the switch fluorescence ratio turned out to be 1.01. Take GTACCTTTTC: the switch fluorescence ratio came out at 1.18. Take TTCACTGTAG: the switch fluorescence ratio came out at 1.14.

Turning to TGAGACCGA, the switch fluorescence ratio is 1.01. Turning to TTGGGCTACA, the switch fluorescence ratio is 1.06. On to GGTCGTGCTT, for which the switch fluorescence ratio turned out to be 1.02. For the sequence TGAAGGGAA, the switch fluorescence ratio was 1.02. As for ATAACATTCA, the switch fluorescence ratio was determined as 1.15. Consider ACATATTGCT, for which the switch fluorescence ratio turned out to be 1.06. The figure for TAAAACAGCT is 1.06; for TCGGAGAACA it is 0.969. In the case of ATGAAGGGG, the switch fluorescence ratio is 1.02. On to AGTTCTAG, for which the switch fluorescence ratio was 0.99. With TTGTGTTGAA, the switch fluorescence ratio amounted to 1.01. As for CCGGTTAATC, the switch fluorescence ratio stood at 1.7. In the case of AAAGAAAGA, the switch fluorescence ratio worked out at 0.995. In the case of ATAAACCCAC, the switch fluorescence ratio was determined as 1.33.

Regarding CGAGGGATCC, the switch fluorescence ratio is 1.03. Consider CATTTGGTAG, for which the switch fluorescence ratio is 1.01.

Regarding TTTTTACGAC, the switch fluorescence ratio is 1.01. With AGTTACGAAT, the switch fluorescence ratio turned out to be 0.977. In the case of TTTTAGTGAG, the switch fluorescence ratio was 1.03. Regarding AGTTTGAACC, the switch fluorescence ratio came to 0.994. To ATCGCGTCGA belongs 1.02; to GCCATGGCTA, 1.02; to CAGTCTAGGC, 1.05. As to AGTGATCACT, the switch fluorescence ratio is 1.03. For the sequence GACTTAGTAG, the switch fluorescence ratio was found to be 1.05. For ATGAGGGATG, the switch fluorescence ratio was found to be 0.998.
